# Assay results: a collection of fitness landscapes (doi:10.1126/science.1257360)
# The list shows a part of the results.
# B1: PhoQ; a variant is named by its letters at X, in order, P23837 (parent)
# chain: MKKLLRLFFPLSLRVRFLLATAAVVLVLSLAYGMVALIGYSVSFDKTTFRLLRGESNLFYTLAKWENNKLHVELPENIDKQSPTMTLIYDENGQLLWAQRDVPWLMKMIQPDWLKSNGFHEIEADVNDTSLLLSGDHSIQQQLQEVREDDDDAEMTHSVAVNVYPATSRMPKLTIVVVDTIPVELKSSYMVWSWFIYVLSANLLLVIPLLWVAAWWSLRPIEALAKEVRELEEHNRELLNPATTRELTSLVRNLNRLLKSERERYDKYRTTLTDLTHSLKTPLXXLQXXLRSLRSEKMSVSDAEPVMLEQISRISQQIGYYLHRASMRGGTLLSRELHPVAPLLDNLTSALNKVYQRKGVNISLDISPEISFVGEQNDFVEVMGNVLDNACKYCLEFVEISARQTDEHLYIVVEDDGPGIPLSKREVIFDRGQRVDTLRPGQGVGLAVAREITEQYEGKIVAGESMLGGARMEVIFGRQHSAPKDE
# Variants of: B1
# Experiment: enrichment ratio after two sorts for PhoP signalling (ratio (wild type AVST 3.29)); higher = more functional
# Details: with PhoP (E. coli)
row,Variant,enrichment ratio
1,IPNT,≤ 0.25
2,AKLG,5.74
3,HHPI,≤ 0.25
4,HGYS,≤ 0.25
5,HNRQ,≤ 0.25
6,FAGQ,≤ 0.25
7,GKKF,≤ 0.25
8,QLHF,≤ 0.25
9,IDHD,≤ 0.25
10,WVFH,≤ 0.25
11,EWFP,≤ 0.25
12,IGGN,≤ 0.25
13,TEFP,≤ 0.25
14,SLNH,0.412
15,YPMY,≤ 0.25
16,ASVA,4.82
17,IPVC,≤ 0.25
18,ADNW,≤ 0.25
19,SIRE,≤ 0.25
20,SRER,≤ 0.25
21,QEQY,≤ 0.25
22,RSEW,≤ 0.25
23,NFIC,≤ 0.25
24,GYPD,≤ 0.25
25,IRRF,≤ 0.25

row,Variant,enrichment ratio
1,MRKD,≤ 0.25
2,VRVN,≤ 0.25
3,QGSD,≤ 0.25
4,FQEE,≤ 0.25
5,PGEG,≤ 0.25
6,NSND,≤ 0.25
7,GGHW,≤ 0.25
8,YHIM,≤ 0.25
9,PSCT,≤ 0.25
10,RRLH,≤ 0.25
11,TPIL,≤ 0.25
12,PCYA,≤ 0.25
13,RSII,≤ 0.25
14,DENR,≤ 0.25
15,NEKS,≤ 0.25
16,IQSG,≤ 0.25
17,FYML,≤ 0.25
18,VDCV,≤ 0.25
19,RTRD,≤ 0.25
20,RAKG,≤ 0.25
21,KGHS,≤ 0.25
22,NHWF,≤ 0.25
23,QHRF,≤ 0.25
24,RKRG,≤ 0.25
25,KVGA,≤ 0.25

row,Variant,enrichment ratio
1,HNHT,≤ 0.25
2,EPFH,≤ 0.25
3,DINA,≤ 0.25
4,YGLC,7.13
5,FYFA,≤ 0.25
6,INWS,≤ 0.25
7,DVLW,≤ 0.25
8,GGAI,3.76
9,IGQK,≤ 0.25
10,FVAR,≤ 0.25
11,TIPE,≤ 0.25
12,MEDW,≤ 0.25
13,QMFL,≤ 0.25
14,THYA,≤ 0.25
15,GKCK,≤ 0.25
16,FETI,≤ 0.25
17,NAFD,≤ 0.25
18,AKVY,5.81
19,YWNP,≤ 0.25
20,LQRY,≤ 0.25
21,SQHM,≤ 0.25
22,EGAG,≤ 0.25
23,HELV,2.09
24,IFRG,≤ 0.25
25,LMKE,≤ 0.25

row,Variant,enrichment ratio
1,WSWE,≤ 0.25
2,AMYL,≤ 0.25
3,WSPG,≤ 0.25
4,GMEP,≤ 0.25
5,GPYF,≤ 0.25
6,QRTY,≤ 0.25
7,GRMH,≤ 0.25
8,TIAS,11.1
9,MNCP,≤ 0.25
10,QAGK,≤ 0.25
11,IIIY,≤ 0.25
12,RNTC,≤ 0.25
13,DSTA,≤ 0.25
14,DRID,≤ 0.25
15,TRDR,≤ 0.25
16,LPGP,≤ 0.25
17,KDDV,≤ 0.25
18,SLCT,19.2
19,LYVS,≤ 0.25
20,RAHM,≤ 0.25
21,GNCA,9.24
22,HYPK,≤ 0.25
23,GPYK,≤ 0.25
24,WSNK,≤ 0.25
25,FERT,≤ 0.25

row,Variant,enrichment ratio
1,DSRS,≤ 0.25
2,DRTY,≤ 0.25
3,GKTW,≤ 0.25
4,YIHC,≤ 0.25
5,GHDQ,≤ 0.25
6,RHDL,≤ 0.25
7,WPYQ,≤ 0.25
8,WRTT,≤ 0.25
9,GQNR,≤ 0.25
10,IMAT,≤ 0.25
11,TNYP,≤ 0.25
12,KHGR,≤ 0.25
13,VCGI,≤ 0.25
14,YFER,≤ 0.25
15,CAIS,≤ 0.25
16,VWAK,≤ 0.25
17,NHCT,≤ 0.25
18,AYNY,≤ 0.25
19,FLQR,≤ 0.25
20,IWMD,≤ 0.25
21,NEVC,≤ 0.25
22,RSYW,≤ 0.25
23,RFTY,≤ 0.25
24,SGCR,≤ 0.25
25,SNHP,≤ 0.25

row,Variant,enrichment ratio
1,FRVW,≤ 0.25
2,IPNI,≤ 0.25
3,VTET,≤ 0.25
4,LIGK,≤ 0.25
5,PLLF,≤ 0.25
6,DVRA,≤ 0.25
7,VWPA,≤ 0.25
8,KVIR,≤ 0.25
9,WWVM,≤ 0.25
10,IYWA,≤ 0.25
11,KHGW,≤ 0.25
12,AQWD,≤ 0.25
13,MPGD,≤ 0.25
14,SVMV,9.33
15,DESC,≤ 0.25
16,YYFM,≤ 0.25
17,VMSS,≤ 0.25
18,EVGN,≤ 0.25
19,PWVI,≤ 0.25
20,SLYH,≤ 0.25
21,DREC,≤ 0.25
22,PGSY,≤ 0.25
23,NIKP,≤ 0.25
24,LQKH,≤ 0.25
25,ATMK,7.72

row,Variant,enrichment ratio
1,DRLQ,≤ 0.25
2,VIFI,≤ 0.25
3,TKGW,≤ 0.25
4,GHMG,≤ 0.25
5,MQPS,≤ 0.25
6,MNFF,5.49
7,VHKF,≤ 0.25
8,NTFW,≤ 0.25
9,GQEM,≤ 0.25
10,GVLW,1.98
11,DYRE,≤ 0.25
12,LQRL,≤ 0.25
13,TAWS,5.46
14,FASW,≤ 0.25
15,HETF,≤ 0.25
16,IQNE,≤ 0.25
17,EYEC,≤ 0.25
18,EHWN,≤ 0.25
19,WYDL,≤ 0.25
20,HRQP,≤ 0.25
21,HTGC,≤ 0.25
22,WNQQ,≤ 0.25
23,WEFM,≤ 0.25
24,QVSV,≤ 0.25
25,KKGL,≤ 0.25

row,Variant,enrichment ratio
1,FTQD,≤ 0.25
2,EPIS,≤ 0.25
3,LQFG,0.358
4,HIPP,≤ 0.25
5,HFFK,≤ 0.25
6,DDNP,≤ 0.25
7,MMTI,≤ 0.25
8,FSYY,≤ 0.25
9,SFCP,≤ 0.25
10,IARM,≤ 0.25
11,WKPD,≤ 0.25
12,ALCM,7.37
13,TKAA,1.26
14,PPLK,≤ 0.25
15,GFMN,≤ 0.25
16,TDMD,≤ 0.25
17,KRIF,≤ 0.25
18,YTWL,≤ 0.25
19,NLWQ,≤ 0.25
20,YHAM,≤ 0.25
